Experimental data: the supplement of paper PMC10723795
Where a name gives a salt, the structure may show the parent alone. The list shows a part of the results.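 Rule for the calls: active = more than 2 SD below the DMSO mean: under 0.85 at 10 µM or 0.885 at 1 µM; inactive = the rest.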 Most values come without repeats; read them as rough.

Test system: RPE1
Assay: nucleolar normality score relative to DMSO (fraction of DMSO control); RPE1 is a non-cancer human cell line; higher = more normal nucleoli (less nucleolar stress)
Conditions: 24 h
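Note: fixed cells immunolabelled for nucleolin and UBF, 40 image fields per well in 384-well plates, per-cell score = nucleolin nucleolar/nucleoplasm intensity ratio divided by the matching UBF ratio.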

SMILES | nucleolar normality score (1 µM) | nucleolar normality score (10 µM)
CC(=O)OCC(=O)[C@@]1(O)CC[C@H]2[C@@H]3CCC4=CC(=O)CC[C@]4(C)[C@H]3C(=O)C[C@@]21C [Cortisone acetate] | inactive: 1.04 | inactive: 0.896
CC(C)(C)c1cc(C(=O)C(C#N)=NNc2cccc(Cl)c2)no1 | inactive: 0.954 | inactive: 0.962
CCc1nc(C(N)=O)c(Nc2ccc(N3CCC(N4CCN(C)CC4)CC3)c(OC)c2)nc1NC1CCOCC1 [Gilteritinib (ASP2215)] | active: 0.83 | active: 0.774
CNS(=O)(=O)Nc1nccc(Cc2c(C)c3ccc(Oc4ncccn4)cc3oc2=O)c1F | inactive: 0.918 | inactive: 1.08
CN[C@@H](C)C(=O)N[C@H](C(=O)N1CCC[C@H]1C(=O)Nc1snnc1-c1ccccc1)C1CCCCC1 | inactive: 1.01 | inactive: 1.07
CN1CCN(c2cccc(Nc3nc4c(-c5ccc(S(C)(=O)=O)cc5)cccn4n3)c2)CC1 | inactive: 1 | inactive: 1.01
Nc1nccc(Oc2ccc3c(C(=O)Nc4cccc(C(F)(F)F)c4)cccc3c2)n1 | inactive: 1.01 | inactive: 1.05
O=C(O)CCN1C(=O)/C(=C/c2ccc(-c3ccc([N+](=O)[O-])cc3)o2)SC1=S | inactive: 1.01 | inactive: 1
Cc1cc(N2C[C@@H](C)N[C@@H](C)C2)ncc1-c1ccc(-c2nc3c(ccn3C)c(=O)[nH]2)cc1 | inactive: 1.05 | inactive: 1.07
CNC(=O)c1nn(C)c2c1C(C)(C)Cc1cnc(Nc3ccc(N4CCN(C)CC4)cc3)nc1-2 | active: 0.737 | active: 0.649
COc1ccc(C=Cc2cc(OC)c(OC)c(OC)c2)cc1OP(=O)(O)O [Fosbretabulin (Combretastatin A4 Phosphate (CA4P)) Disodium] | inactive: 1.01 | inactive: 1.04
CCN1C(=O)CNc2ncc(-c3ccc(-c4nc[nH]n4)nc3C)nc21 | inactive: 0.917 | inactive: 0.9
C[C@@H]1COCCN1c1cc(C2([S@](C)(=N)=O)CC2)nc(-c2cc[nH]c3nccc2-3)n1 | inactive: 0.922 | inactive: 1.04
C[n+]1cccc(C(=O)[O-])c1 [Trigonelline Hydrochloride] | inactive: 1.05 | inactive: 0.916
O=c1[nH]c(=O)n([C@H]2C[C@H](O)[C@@H](CO)O2)cc1F [Floxuridine] | inactive: 0.97 | inactive: 0.979
O=C1C(=O)N(Cc2ccc(Cl)c(Cl)c2)c2ccccc21 [Apoptosis Activator 2] | active: 0.855 | inactive: 0.858
O=C(NC1CCOCC1)c1ccc(-c2cc(-c3c[nH]nc3-c3ccccn3)ccn2)cc1 | inactive: 1.02 | inactive: 1.08
O=C1c2cccc(O)c2C(=O)c2c(O)cc(CO)cc21 [Aloe-emodin] | inactive: 1.09 | inactive: 1.06
NC(=O)c1ncn([C@@H]2O[C@H](CO)[C@@H](O)[C@H]2O)c1N [AICAR (Acadesine)] | inactive: 1.06 | inactive: 1.1
CC1=C(/C=C/C(C)=C/C=C/C(C)=C/C(=O)Nc2ccc(O)cc2)C(C)(C)CCC1 [Fenretinide] | inactive: 1.04 | inactive: 1.07

SMILES | nucleolar normality score (1 µM) | nucleolar normality score (10 µM)
CC(c1cc2ccccc2s1)N(O)C(N)=O (stereo not drawn) [Zileuton] | inactive: 0.92 | inactive: 1.1
CC1=C(C(=O)OC2CCCCC2)C(c2ccc([N+](=O)[O-])cc2)C2=C(CC(C)(C)CC2=O)N1 (stereo not drawn) | inactive: 0.964 | inactive: 1.06
O=C(O)CSc1cc(NS(=O)(=O)c2ccc(Br)cc2)c2ccccc2c1O | inactive: 0.999 | inactive: 1.06
COc1cc(N2CCN(C)CC2)ccc1Nc1nccc(-c2cn(C)c3cnccc23)n1 | active: 0.867 | inactive: 0.916
COc1cc2c(cc1O)CC[C@@H]1[C@@H]2CC[C@]2(C)[C@@H](O)CC[C@@H]12 [2-Methoxyestradiol (2-MeOE2)] | inactive: 0.992 | inactive: 1.07
NC(=O)c1cccc2[nH]c(-c3ccc(C4CCCN4)cc3F)nc12 (stereo not drawn) | inactive: 1.05 | inactive: 1.08
O=C(NC[C@H](O)CN1CCc2ccccc2C1)c1ccnc(NC2CCC2)c1 | inactive: 0.978 | inactive: 0.966
NC(=O)c1ccc2nc(-c3ccc(Oc4ccc(Cl)cc4)cc3)[nH]c2c1 [Chk2 Inhibitor II (BML-277)] | inactive: 1.01 | inactive: 1.01
COc1ccnc(C[S+]([O-])c2nc3cc(-n4cccc4)ccc3[nH]2)c1C (stereo not drawn) [Ilaprazole] | inactive: 0.99 | inactive: 0.999
COC(=O)c1ccc(O)c(NC(=O)COc2ccc(C34CC5CC(CC(C5)C3)C4)cc2)c1 | inactive: 1.06 | inactive: 0.978
CC(C)CCN1c2nc(Nc3cc(F)c(O)c(F)c3)ncc2N(C)C(=O)C1C (stereo not drawn) | inactive: 1.09 | inactive: 0.905
O=C1NC(=O)/C(=C/c2ccc(-c3ccc(F)cc3O)o2)S1 | inactive: 1 | active: 0.839
Cc1cnc(Nc2ccc(N3CCN(C)CC3)cc2)nc1Nc1cccc(S(=O)(=O)NC(C)(C)C)c1 | inactive: 1 | inactive: 0.882
Cc1cccc(-c2[nH]c(C(C)(C)C)nc2-c2ccc3nccnc3c2)n1 | inactive: 1.03 | inactive: 1.02
COc1ccc(-c2oc3c(CC=C(C)C)c(O)cc(O)c3c(=O)c2O[C@@H]2O[C@@H](C)[C@H](O)[C@@H](O)[C@H]2O)cc1 [Baohuoside I] | inactive: 1.02 | inactive: 0.929
Nc1cccc(S(=O)(=O)N2CCCN(S(=O)(=O)c3ccc4c(c3)OCCO4)CC2)c1 | inactive: 0.973 | inactive: 1.04
CC[C@H](C)n1cc(C)c2c(C(=O)NCc3c(C)cc(C)[nH]c3=O)cc(-c3ccc(N4CCNCC4)nc3)cc21 | inactive: 0.96 | inactive: 0.967
CC[C@@]1(O)C(=O)OCc2c1cc1n(c2=O)Cc2cc3cc(O)ccc3nc2-1 [(S)-10-Hydroxycamptothecin] | inactive: 1.05 | active: 0.533
CC[C@@]1(O)C(=O)OCc2c1cc1n(c2=O)Cc2cc3cc(O)ccc3nc2-1 [Hydroxy Camptothecine] | inactive: 1.04 | inactive: 1.08
